# Reference: PubChem BioAssay (NCATS)
# This list was built around the results that the source calls inconclusive (neither active nor inactive); the mix of calls is not that of the screen. For part of these data: No potency is given beside an inconclusive call; the fits are too rough. Calls of active or inactive are those of the source. Unless noted, calls follow the shape of the dose curve; as a rule, active = well fitted curve in the direction sought with a large enough effect; inconclusive = small, poorly fitted or top-dose-only effect, or another doubt; inactive = no such curve, though single readings can be large; an effect the other way counts as inactive or inconclusive.
# What was measured:
# [1] = molecular target: Cytochrome P450 2D6 (Homo sapiens) (UniProt P10635); assay: Cytochrome P450 family 2 subfamily D member 6 (CYP2D6) small molecule antagonists: luciferase biochemical (cell-free) qHTS assay (AID 1645840; active = well fitted curve in the direction sought with a large enough effect in the repeat runs; inconclusive = weak or mixed curves; inactive = no such curve, though single readings can be large; an effect the other way counts as inactive or inconclusive; also: potency is read from the fitted curve at half-maximal effect; nearly all actives have a fitted effect of over 55% in size)
# How it was run: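 P450-Glo CYP2D6 system: proluciferin substrate converted by enzyme to luciferin, read by luminescence proportional to activity. Enzyme-substrate mix with compound 10 min at room temperature, then NADPH regeneration 1 h before detection reagent.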
# [2] = molecular target: Cytochrome P450 2C9 (Homo sapiens) (UniProt P11712); assay: Cytochrome P450 family 2 subfamily C member 9 (CYP2C9) small molecule antagonists: luciferase biochemical (cell-free) qHTS assay (AID 1645842; active = well fitted curve in the direction sought with a large enough effect in the repeat runs; inconclusive = weak or mixed curves; inactive = no such curve, though single readings can be large; an effect the other way counts as inactive or inconclusive; also: nearly all actives have a fitted effect of over 55% in size; also: potency is read from the fitted curve at half-maximal effect; as to activity change, negative = inhibition: % is scaled to controls: 0 for no effect and ±100 for the full control effect)
# How it was run: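 P450-Glo CYP2C9 system: proluciferin substrate with enzyme in mix containing 0.4% BSA, 10 min at room temperature, then NADPH regeneration solution added and incubated 1 h at 37C. Detection reagent stopped reaction; luminescence read after 20 min as RLU.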
# [3] = molecular target: Phospholipid hydroperoxide glutathione peroxidase GPX4 (Homo sapiens) (UniProt P36969); assay: Primary qHTS Assay for Inhibitors of Recombinant Selenoprotein Glutathione Peroxidase 4 (GPX4) (AID 1845192); conditions: activity change, negative = inhibition: at 50 µM (top of the series) unless noted; also: potency is read from the fitted curve at half-maximal effect; nearly all actives have a fitted effect of over 65% in size
# How it was run: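 NADPH consumption followed by fluorescence at 340/450 nm, t=0 and after 15 min at room temperature. Reaction started with cumene hydroperoxide (0.5 mM final) after 30 min compound–GPX4 preincubation; final 200 nM GPX4, 100 nM GR, 1 mM GSH, 0.5 mM NADPH.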
# [4] = qHTS assay to identify inhibitors of the type 1 interferon - major histocompatibility complex class I in skeletal muscle: Counter screen cell viability and HiBit confirmation (AID 1347412); conditions: iHSKM muscle cells + IFN-b, HiBiT or CellTiter-Glo, 24 h; also: potency is read from the fitted curve at half-maximal effect; nearly all actives have a fitted effect of over 60% in size
# How it was run: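 CRISPR HLA-B*08:01-HiBit immortalized human myoblasts (C25cl48) stimulated with 4 ng/ml IFN-beta and compounds (12-point 1:3, top 46 uM final) for 24 h at 37 C. Duplicate plates read by HiBit lytic luminescence or CellTiter Glo ATP.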
# [5] = qHTS of pediatric cancer cell lines to identify multiple opportunities for drug repurposing: Primary screen for SK-N-MC cells (AID 1347093); conditions: SK-N-MC viability, CellTiter-Glo luminescence, 48 h; activity change, negative = cytotoxic: at 46 µM (top of the series); also: potency is read from the fitted curve at half-maximal effect;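 as to activity change, negative = cytotoxic: plate controls were DMSO neutral control for no effect and bortezomib for full effect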
# How it was run: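 Metabolically active cells were quantified by ATP-dependent luminescence (CellTiter-Glo, 15 min at room temperature) following 48 h treatment. Cells had been plated at 500-1,000 per well and settled for 5 h beforehand.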
# [6] = qHTS of pediatric cancer cell lines to identify multiple opportunities for drug repurposing: Primary screen for Saos-2 cells (AID 1347097); conditions: Saos-2 viability, CellTiter-Glo ATP luminescence, 48 h; activity change, negative = cytotoxic: at 46 µM (top of the series); also: nearly all actives have a fitted effect of over 40% in size; also: potency is read from the fitted curve at half-maximal effect; as to activity change, negative = cytotoxic: % is scaled to controls: 0 for no effect and ±100 for the full control effect
# How it was run: (§1)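 Luminescence from CellTiter-Glo served as readout of metabolically active cells after 48 h compound exposure. Titrations: MIPE 11-point, from 0.78 nM; NPC 8-point, from 0.59 nM (final). Concentration-response curves came straight from the primary screen.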
# [7] = Drug repurposing screens with cells derived from glioblastoma tumor samples (AID 1345199); conditions: GBM patient neurospheres viability, ATP luminescence, 48 h; Potency: tumour line A unless noted; activity, negative = cell killing: at 46 µM (top of the series), tumour line A unless noted; also: nearly all actives have a fitted effect of over 40% in size; also: potency is read from the fitted curve at half-maximal effect
# How it was run: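 Primary testing used CD133+ neurospheres from four GBM patients, seven concentrations, 48 h exposure and ATP-based viability; confirmation added three slower-growing patient lines.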
# [8] = qHTS of pediatric cancer cell lines to identify multiple opportunities for drug repurposing: Primary screen for SK-N-SH cells (AID 1347098); also: % is scaled to controls: 0 for no effect and ±100 for the full control effect; nearly all actives have a fitted effect of over 65% in size
# How it was run: (§2)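 Cells (500-1,000/well) rested 5 h, then received compounds for 48 h; metabolically active cells were measured by CellTiter-Glo luminescence. Final concentrations spanned up to 46 µM (MIPE, 11-point) or 0.59 nM-46 µM (NPC, 8-point) in primary screens, 11-point in follow-ups.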
# [9] = qHTS of pediatric cancer cell lines to identify multiple opportunities for drug repurposing: Primary screen for OHS-50 cells (AID 1347103); conditions: OHS-50 osteosarcoma viability, CellTiter-Glo luminescence, 48 h; activity change, negative = cytotoxic: at 57.3 µM (top of the series); also: nearly all actives have a fitted effect of over 40% in size; also: potency is read from the fitted curve at half-maximal effect;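 as to activity change, negative = cytotoxic: plate controls were DMSO neutral control for no effect and bortezomib positive control for full effect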
# How it was run: as §2
# [10] = qHTS of pediatric cancer cell lines to identify multiple opportunities for drug repurposing: Primary screen for Rh30 cells (AID 1347107); also: nearly all actives have a fitted effect of over 75% in size; also: potency is read from the fitted curve at half-maximal effect; as to activity change, negative = cytotoxic: % is scaled to controls: 0 for no effect and ±100 for the full control effect
# How it was run: as §2
# [11] = system: CP260; assay: qHTS profiling for inhibitors of Plasmodium falciparum proliferation (AID 504749); also: nearly all actives have a fitted effect of over 60% in size; also: potency is read from the fitted curve at half-maximal effect; conditions: P. falciparum in erythrocytes, SYBR Green DNA, 72 h; series mostly up to 28.7 µM
# How it was run: (§3)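 SYBR Green fluorescence of parasite DNA, read after lysis and overnight dark incubation, measured growth over 72 h in erythrocyte culture at 0.3% parasitemia and 2.5% hematocrit. Data normalised to DMSO and 0.29 uM artemisinin, with plate-drift correction.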
# [12] = system: CP265; assay: as above; conditions: P. falciparum in erythrocytes, SYBR Green DNA, 72 h; series mostly up to 28.7 µM
# How it was run: as §3
# [13] = qHTS of pediatric cancer cell lines to identify multiple opportunities for drug repurposing: Primary screen for A673 cells (AID 1347092); conditions: A673 Ewing sarcoma viability, CellTiter-Glo ATP luminescence, 48 h; activity change, negative = cytotoxic: at 46 µM (top of the series); also: nearly all actives have a fitted effect of over 45% in size; also: potency is read from the fitted curve at half-maximal effect; as to activity change, negative = cytotoxic: % is scaled to controls: 0 for no effect and ±100 for the full control effect
# How it was run: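 A673 cells (500-1,000 cells/well) were treated 48 hours at 37 degrees C with compounds at 11-point (0.78 nM to 46 µM) or 8-point (0.59 nM to 46 µM) dilutions. Viability read by CellTiter-Glo luminescence; concentration-response curves fitted.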
# [14] = A High-Content qHTS Against Drug Library for the Identification of Small Molecules that Inhibit DYT1 Early Onset Primary Dystonia-Associated Cell Pathology (AID 1645839; calls by dose curve; also: potency is read from the fitted curve at half-maximal effect)
# How it was run: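 High-content imaging quantified EGFP-TorsinA mislocalization in HEK293-derived cells inducibly expressing DYT1 mutant torsinA, after 48 h exposure to compound given together with tetracycline induction. Cell count served as a toxicity channel alongside %pathology.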
# [15] = qHTS of pediatric cancer cell lines to identify multiple opportunities for drug repurposing: Primary screen for NB-EBc1 cells (AID 1347095); also: potency is read from the fitted curve at half-maximal effect;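 as to activity change, negative = cytotoxic: plate controls were DMSO neutral control for no effect and bortezomib for full effect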
# How it was run: as §1
# [16] = qHTS of pediatric cancer cell lines to identify multiple opportunities for drug repurposing: Primary screen for BT-12 cells (AID 1347101); also: nearly all actives have a fitted effect of over 25% in size; also: potency is read from the fitted curve at half-maximal effect;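 as to activity change, negative = cytotoxic: plate controls were DMSO for no effect and bortezomib positive control for full effect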
# How it was run: as §2
# [17] = qHTS of pediatric cancer cell lines to identify multiple opportunities for drug repurposing: Primary screen for Rh41 cells (AID 1347108); also: nearly all actives have a fitted effect of over 70% in size; also: potency is read from the fitted curve at half-maximal effect;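 as to activity change, negative = cytotoxic: luminescence drop marks cytotoxic hits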
# How it was run: as §1
# [18] = qHTS of pediatric cancer cell lines to identify multiple opportunities for drug repurposing: Primary screen for RD cells (AID 1347104);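 also: plate controls were DMSO for no effect and bortezomib for full effect; nearly all actives have a fitted effect of over 55% in size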
# How it was run: as §1
# [19] = qHTS of pediatric cancer cell lines to identify multiple opportunities for drug repurposing: Primary screen for SJ-GBM2 cells (AID 1347091);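 also: plate controls were DMSO neutral control for no effect and bortezomib for full effect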
# How it was run: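 Cell viability, CellTiter-Glo luminescence; 500-1,000 cells/well, 8- or 11-point titration, 48 h compound exposure at 37 degrees C, 5% CO2. Controls: DMSO neutral, bortezomib 2.3 µM final as positive.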
# [20] = system: CP286; assay: qHTS profiling for inhibitors of Plasmodium falciparum proliferation (AID 504749); also: nearly all actives have a fitted effect of over 60% in size; also: potency is read from the fitted curve at half-maximal effect; conditions: P. falciparum in erythrocytes, SYBR Green DNA, 72 h; series mostly up to 28.7 µM
# How it was run: as §3
# Tags tell the direction and shape of the fitted curve.
# UniProt P10635, sequence (P10635 whole entry, looked up): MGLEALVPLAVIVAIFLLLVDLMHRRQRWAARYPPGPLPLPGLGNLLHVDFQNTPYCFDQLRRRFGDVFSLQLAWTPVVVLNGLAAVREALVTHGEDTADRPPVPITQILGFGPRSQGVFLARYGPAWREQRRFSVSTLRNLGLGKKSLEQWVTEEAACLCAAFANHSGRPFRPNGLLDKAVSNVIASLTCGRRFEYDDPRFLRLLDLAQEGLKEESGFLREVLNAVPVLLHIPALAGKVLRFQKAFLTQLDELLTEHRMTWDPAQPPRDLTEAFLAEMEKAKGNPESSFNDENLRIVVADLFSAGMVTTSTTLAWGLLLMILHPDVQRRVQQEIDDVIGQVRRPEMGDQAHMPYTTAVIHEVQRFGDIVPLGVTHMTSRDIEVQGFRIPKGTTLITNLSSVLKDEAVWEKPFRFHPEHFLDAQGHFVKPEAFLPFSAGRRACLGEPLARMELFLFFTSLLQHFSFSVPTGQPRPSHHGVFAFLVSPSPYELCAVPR
# UniProt P11712, sequence (P11712 whole entry, looked up): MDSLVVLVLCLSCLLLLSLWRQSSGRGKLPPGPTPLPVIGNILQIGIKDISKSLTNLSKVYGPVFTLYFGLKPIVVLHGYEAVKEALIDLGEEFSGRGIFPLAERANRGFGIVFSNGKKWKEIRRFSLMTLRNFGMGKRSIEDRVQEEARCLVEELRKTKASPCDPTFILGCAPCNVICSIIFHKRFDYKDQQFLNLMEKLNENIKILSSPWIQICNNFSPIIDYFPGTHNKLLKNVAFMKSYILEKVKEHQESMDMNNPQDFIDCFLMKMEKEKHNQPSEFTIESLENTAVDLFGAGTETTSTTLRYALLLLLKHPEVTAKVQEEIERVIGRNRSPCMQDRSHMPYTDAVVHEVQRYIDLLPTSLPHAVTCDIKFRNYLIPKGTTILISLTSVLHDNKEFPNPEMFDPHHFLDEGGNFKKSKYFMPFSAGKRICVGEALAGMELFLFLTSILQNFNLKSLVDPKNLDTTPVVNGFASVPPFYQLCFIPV
# UniProt P36969, sequence (P36969 whole entry, looked up): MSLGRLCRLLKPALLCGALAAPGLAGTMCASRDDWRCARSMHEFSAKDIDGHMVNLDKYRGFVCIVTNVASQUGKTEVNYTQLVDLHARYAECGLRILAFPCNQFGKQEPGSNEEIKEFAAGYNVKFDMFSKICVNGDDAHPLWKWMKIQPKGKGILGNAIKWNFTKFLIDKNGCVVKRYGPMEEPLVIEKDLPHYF
smiles,measurement,setting,value
CC(C)(Oc1ccc(-c2nc3cc(Cl)ccc3s2)cc1)C(=O)O,Potency,[1],"inconclusive [inhibitor, single point]"
same,Potency,[2],"inconclusive [inhibitor, partial curve, poor fit]"
same,Potency,[3],"inconclusive [inhibitor, single point]"
COCCNCc1ccc(-c2cc3nccc(Oc4ccc(NC(=O)C5(C(=O)Nc6ccc(F)cc6)CC5)cc4F)c3s2)nc1,Potency,[4]; HiBiT,"inconclusive [inhibitor, single point]"
same,Potency,[4]; Viability,active: 31.3 µM
CO[C@]1(NC(=O)CSC(F)F)C(=O)N2C(C(=O)O)=C(CSc3nnnn3CCO)CO[C@H]21,Potency,[5],inactive
same,Potency,[6],inactive
same,Potency,[7],"inconclusive [inhibitor, partial curve]"
O=C(/C=C/c1ccccc1)OCc1ccccc1,Potency,[8],inactive
same,Potency,[9],inactive
same,Potency,[10],inactive
same,Potency,[11],inactive
same,Potency,[12],inactive
C[N+](C)(C)CCCCCCCCCC[N+](C)(C)C,Potency,[13],inactive
same,Potency,[5],inactive
same,Potency,[10],inactive
same,Potency,[14],inactive
same,Potency,[2],"inconclusive [inhibitor, single point]"
same,Potency,[12],active: 2.82 µM
CCOC(=O)c1cccnc1,Potency,[13],inactive
same,Potency,[6],inactive
same,Potency,[2],inactive
same,Potency,[7],inactive
O=S(=O)(c1ccccc1)c1cnc2c(N3CCNCC3)cccc2c1,Potency,[1],"inconclusive [inhibitor, partial curve]"
same,Potency,[2],active: 0.338 µM
CN(C)CCCO[C@@H]1[C@H]2OC(C)(C)O[C@H]2O[C@@H]1C(O)CO (some centres not stated),Potency,[15],inactive
same,Potency,[6],inactive
same,Potency,[16],inactive
same,Potency,[7],"inconclusive [inhibitor, partial curve, poor fit]"
NS(=O)(=O)c1ccc(C(=O)O)cc1,Potency,[10],inactive
same,Potency,[14],inactive
C/C=C1\[C@H]2C=C(C)C[C@]1(N)c1ccc(=O)[nH]c1C2,Potency,[16],inactive
same,Potency,[17],inactive
same,Potency,[14],inactive
O=c1[nH]c(=O)n([C@H]2C[C@H](O)[C@@H](CO)O2)cc1C(F)(F)F,Potency,[5],"inconclusive [cytotoxic, partial curve, poor fit]"
same,Potency,[15],"inconclusive [cytotoxic, single point]"
same,Potency,[8],inactive
same,Potency,[9],"inconclusive [cytotoxic, partial curve]"
same,Potency,[10],"inconclusive [cytotoxic, partial curve, poor fit]"
same,Potency,[17],"inconclusive [cytotoxic, partial curve, poor fit]"
same,Potency,[14],"inconclusive [inhibitor, partial curve, poor fit]"
CC1CCc2cc(F)cc3c(=O)c(C(=O)O)cn1c23 (configuration not stated),Potency,[15],inactive
same,Potency,[6],inactive
same,Potency,[18],inactive
same,"% pathology change, negative = correction",[14],inactive: -13.4% [at 9.22 µM]
Cc1cc(N2CCN([C@@H]3CN[C@H](C(=O)N4CCSC4)C3)CC2)n(-c2ccccc2)n1,Potency,[1],"inconclusive [inhibitor, partial curve]"
same,Potency,[3],"inconclusive [inhibitor, single point]"
C#C[C@]1(OC(C)=O)CC[C@H]2[C@@H]3CCC4=C[C@@H](OC(C)=O)CC[C@@H]4[C@H]3CC[C@@]21C,Potency,[13],"inconclusive [cytotoxic, single point]"
same,Potency,[5],"inconclusive [cytotoxic, single point]"
same,Potency,[15],"inconclusive [cytotoxic, partial curve, poor fit]"
same,Potency,[6],"inconclusive [cytotoxic, single point]"
same,Potency,[16],"inconclusive [cytotoxic, single point]"
same,Potency,[14],"inconclusive [inhibitor, single point]"
same,Potency,[7],active: 10 µM
O=C1NC(=O)C(c2ccccc2)(c2ccccc2)N1,Potency,[19],inactive
same,Potency,[9],inactive
same,Potency,[20],inactive
